{"source": "PubChem BioAssay (NCI)", "assay_in_all_cases": "NCI anticancer screen, dose series, 48 h", "key": {"MDA-N": {"system": "MDA-N"}, "MALME-3M melanoma": {"system": "MALME-3M melanoma"}, "SK-MEL-5 melanoma": {"system": "SK-MEL-5 melanoma"}, "UACC-257 melanoma": {"system": "UACC-257 melanoma"}}, "note": "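Following 48 hours of exposure in 96-well plates, responses at five concentrations were used to interpolate endpoints linearly. The concentration for full growth arrest is given as TGI.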 Some entries of the source have several records that differ or are many. This list holds those alone. There may be further records. The tests behind the records often covered other concentration ranges, not given here; some values may only mark the edge of a range."}
{"smiles": "C/C(=N\\NC(=S)N(C)C)c1ccccn1", "values": [{"measurement": "TGI", "setting": "MDA-N", "result": "602 nM and 17.1 µM"}, {"measurement": "TGI", "setting": "MALME-3M melanoma", "result": "531 nM and 15 µM"}, {"measurement": "TGI", "setting": "SK-MEL-5 melanoma", "result": "79.9 nM and 5.65 µM"}, {"measurement": "TGI", "setting": "UACC-257 melanoma", "result": "137 nM and 2.17 µM"}]}
